Results from patent US20170354148A1, “SAFENED HERBICIDAL COMPOSITIONS CONTAINING HALAUXIFEN AND METHODS OF USE THEREOF IN BRASSICA SPECIES” (Dow AgroSciences LLC, priority 2016, published 2017).
Values joined by “and” are separate entries in the source; they are usually repeats but may differ in a detail not shown here. Equal entries are not always repeated.

Tests used:
[1] = system: Juncea canola or brown mustard (Brassica juncea, BRSJU); assay: Example 5 greenhouse trials, postemergence visual injury; details: for % Visual Injury Obs / Visual Injury Obs: BRSJU
[2] = system: all varieties of canola and oil seed rape (Brassica napus, BRSNN); assay: as above; details: for % Visual Injury Obs / Visual Injury Obs: BRSNN
[3] = system: stem kale (Brassica oleracea var. acephala subvar. medullosa, BRSOM); assay: Example 1 pot trials, postemergence crop safety, visual phytotoxicity
[4] = system: BRSOM=Brassica oleracea var. acephala subvar. Medullosa (stem kale); assay: Example 2 trials (Table 6), postemergence crop safety, visual leafroll
[5] = halauxifen-methyl alone 2.5 g ai/ha
[6] = halauxifen-methyl alone 5 g ai/ha
[7] = halauxifen-methyl alone 10 g ai/ha

CCOC(=O)C1=NN(c2ccc(Cl)cc2Cl)C(C)(C(=O)OCC)C1 (racemic) [Mefenpyr-diethyl, diethyl (RS)-1-(2,4-dichlorophenyl)-5-methyl-2-pyrazoline-3,5-dicarboxylate]
Percent (%) Visual Injury BRSJU Obs ([1]; safener alone 5 g ai/ha): 0%
Percent (%) Visual Injury BRSJU Obs ([1]; safener alone 10 g ai/ha): 0%
Percent (%) Visual Injury BRSJU Obs ([1]; safener alone 20 g ai/ha): 0%
Percent (%) Visual Injury BRSJU Obs ([1]; safener alone 40 g ai/ha): 0%
Percent (%) Visual Injury BRSNN Obs ([2]; safener alone 5 g ai/ha): 0%
Percent (%) Visual Injury BRSNN Obs ([2]; safener alone 10 g ai/ha): 0%
Percent (%) Visual Injury BRSNN Obs ([2]; safener alone 20 g ai/ha): 0%
Percent (%) Visual Injury BRSNN Obs ([2]; safener alone 40 g ai/ha): 0%

O=C(O)c1nc(Cl)ccc1Cl [Clopyralid-TIPA, (2RS,2′RS,2″RS)-tris(2-hydroxypropyl)ammonium 3,6-dichloropyridine-2-carboxylate]
Mean % Visual Deformation ([3]; 7DAA1, 22.5 g ae/ha): 0.0% and 0.7%
Mean % Visual Deformation ([3]; 7DAA1, 45 g ae/ha): 0.0% and 0.7%
Mean % Visual Deformation ([3]; 7DAA1, 90 g ae/ha): 0.0% and 0.7%
Mean % Visual Deformation ([3]; 7DAA1, 180 g ae/ha): 0.0% and 0.7%
Mean % Visual Deformation ([3]; 7DAA1, 360 g ae/ha): 0.0% and 0.7%
Mean % Visual Deformation ([3]; 15DAA1, 22.5 g ae/ha): 0.0%
Mean % Visual Deformation ([3]; 15DAA1, 45 g ae/ha): 0.0%
Mean % Visual Deformation ([3]; 15DAA1, 90 g ae/ha): 0.0%
Mean % Visual Deformation ([3]; 15DAA1, 180 g ae/ha): 0.0%
Mean % Visual Deformation ([3]; 15DAA1, 360 g ae/ha): 0.0%
Mean % Visual Deformation ([3]; 28DAA1, 90 g ae/ha): 0.0%
Mean % Visual Deformation ([3]; 28DAA1, 180 g ae/ha): 0.0%
Mean % Visual Deformation ([3]; 28DAA1, 360 g ae/ha): 0.0%
Mean % Visual Injury ([3]; trial 1, 15DAA1, 90 g ae/ha): 0.0%
Mean % Visual Injury ([3]; trial 1, 28DAA1, 90 g ae/ha): 0.0%
Mean % Visual Injury ([3]; trial 2, 7DAA1, 22.5 g ae/ha): 0.7%
Mean % Visual Injury ([3]; trial 2, 7DAA1, 45 g ae/ha): 0.7%
Mean % Visual Injury ([3]; trial 2, 7DAA1, 90 g ae/ha): 0.0% and 0.7%
Mean % Visual Injury ([3]; trial 2, 7DAA1, 180 g ae/ha): 0.0% and 0.7%
Mean % Visual Injury ([3]; trial 2, 7DAA1, 360 g ae/ha): 0.0% and 0.7%
Mean % Visual Injury ([3]; trial 2, 15DAA1, 22.5 g ae/ha): 0.0%
Mean % Visual Injury ([3]; trial 2, 15DAA1, 45 g ae/ha): 0%
Mean % Visual Injury ([3]; trial 2, 15DAA1, 90 g ae/ha): 0%
Mean % Visual Injury ([3]; trial 2, 15DAA1, 180 g ae/ha): 0.0%
Mean % Visual Injury ([3]; trial 2, 15DAA1, 360 g ae/ha): 0%
Mean % Visual Injury ([3]; trial 2, 28DAA1, 180 g ae/ha): 0%
Mean % Visual Injury ([3]; trial 2, 28DAA1, 360 g ae/ha): 0%
Mean % Visual Leafroll ([4]; 1DAA1, 22.5 g ae/ha): 0%
Mean % Visual Leafroll ([4]; 1DAA1, 45 g ae/ha): 0%
Mean % Visual Leafroll ([4]; 1DAA1, 90 g ae/ha): 0%
Mean % Visual Leafroll ([4]; 1DAA1, 180 g ae/ha): 0%
Mean % Visual Leafroll ([4]; 1DAA1, 360 g ae/ha): 0%
Mean % Visual Leafroll ([4]; 4DAA1, 22.5 g ae/ha): 0%
Mean % Visual Leafroll ([4]; 4DAA1, 45 g ae/ha): 0%
Mean % Visual Leafroll ([4]; 4DAA1, 90 g ae/ha): 0%
Mean % Visual Leafroll ([4]; 4DAA1, 180 g ae/ha): 0%
Mean % Visual Leafroll ([4]; 4DAA1, 360 g ae/ha): 0%
Mean % Visual Leafroll ([4]; 7DAA1, 45 g ae/ha): 0%
Mean % Visual Leafroll ([4]; 7DAA1, 90 g ae/ha): 0%
Mean % Visual Leafroll ([4]; 7DAA1, 180 g ae/ha): 0%
Mean % Visual Leafroll ([4]; 7DAA1, 360 g ae/ha): 0%
Mean % Visual Leafroll ([4]; 15DAA1, 90 g ae/ha): 0%
Mean % Visual Leafroll ([4]; 15DAA1, 180 g ae/ha): 0%
Mean % Visual Leafroll ([4]; 28DAA1, 90 g ae/ha): 0%
Mean % Visual Leafroll ([4]; 28DAA1, 360 g ae/ha): 0%

O=C(O)c1nc(Cl)ccc1Cl [Clopyralid-olamine, 2-hydroxyethanaminium 3,6-dichloro-2-pyridinecarboxylate]
% Visual Injury Obs ([1]; 50 g ai/ha alone, 20-22 d): 0%
% Visual Injury Obs ([1]; 100 g ai/ha alone, 20-22 d): 0%
% Visual Injury Obs ([1]; 200 g ai/ha alone, 20-22 d): 0%
% Visual Injury Obs ([2]; 50 g ai/ha alone, 20-22 d): 2%
% Visual Injury Obs ([2]; 100 g ai/ha alone, 20-22 d): 0%
% Visual Injury Obs ([2]; 200 g ai/ha alone, 20-22 d): 0%

COC(=O)c1nc(-c2ccc(Cl)c(OC)c2F)cc(N)c1Cl [Halauxifen-methyl, methyl 4-amino-3-chloro-6-(4-chloro-2-fluoro-3-methoxyphenyl)-2-pyridineccarboxylate]
% Visual Injury Obs ([1]; 2.5 g ai/ha alone, 20-22 d): 4%
% Visual Injury Obs ([1]; 5 g ai/ha alone, 20-22 d): 8%
% Visual Injury Obs ([1]; 10 g ai/ha alone, 20-22 d): 5%
% Visual Injury Obs ([1]; halauxifen-methyl 2.5 g ai/ha): 4%
Visual Injury Obs ([1]; halauxifen-methyl 2.5 g ai/ha): 4%
% Visual Injury Obs ([1]; halauxifen-methyl 5 g ai/ha): 8%
Visual Injury Obs ([1]; halauxifen-methyl 5 g ai/ha): 8%
% Visual Injury Obs ([1]; halauxifen-methyl 10 g ai/ha): 5%
Visual Injury Obs ([1]; halauxifen-methyl 10 g ai/ha): 5%
Percent (%) Visual Injury BRSJU Obs [1, 5]: 4%
Percent (%) Visual Injury BRSJU Obs [1, 6]: 8%
Percent (%) Visual Injury BRSJU Obs [1, 7]: 5%
% Visual Injury Obs ([2]; 2.5 g ai/ha alone, 20-22 d): 12%
% Visual Injury Obs ([2]; 5 g ai/ha alone, 20-22 d): 19%
% Visual Injury Obs ([2]; 10 g ai/ha alone, 20-22 d): 21%
% Visual Injury Obs ([2]; halauxifen-methyl 2.5 g ai/ha): 12%
Visual Injury Obs ([2]; halauxifen-methyl 2.5 g ai/ha): 12%
% Visual Injury Obs ([2]; halauxifen-methyl 5 g ai/ha): 19%
Visual Injury Obs ([2]; halauxifen-methyl 5 g ai/ha): 19%
% Visual Injury Obs ([2]; halauxifen-methyl 10 g ai/ha): 21%
Visual Injury Obs ([2]; halauxifen-methyl 10 g ai/ha): 21%
Percent (%) Visual Injury BRSNN Obs [2, 5]: 12%
Percent (%) Visual Injury BRSNN Obs [2, 6]: 19%
Percent (%) Visual Injury BRSNN Obs [2, 7]: 21%
Mean % Visual Deformation ([3]; 15DAA1, 15 g ae/ha): 42.5% and 40.0%
Mean % Visual Deformation ([3]; 28DAA1, 15 g ae/ha): 70.0%
Mean % Visual Injury ([3]; trial 1, 15DAA1, 15 g ae/ha): 18.0%
Mean % Visual Injury ([3]; trial 1, 28DAA1, 15 g ae/ha): 26.0%
Mean % Visual Injury ([3]; trial 2, 15DAA1, 15 g ae/ha): 52.5% and 46.4%
Mean % Visual Injury ([3]; trial 2, 28DAA1, 15 g ae/ha): 70.8%

O=C(O)c1c(Cl)ccc2cc(Cl)cnc12 [Quinclorac, 3,7-dichloro-8-quinolinecarboxylic acid]
% Visual Injury Obs ([1]; 50 g ai/ha alone, 20-22 d): 0%
% Visual Injury Obs ([1]; 100 g ai/ha alone, 20-22 d): 0%
% Visual Injury Obs ([1]; 200 g ai/ha alone, 20-22 d): 0%
% Visual Injury Obs ([1]; quinclorac 50 g ai/ha): 0%
Visual Injury Obs ([1]; quinclorac 50 g ai/ha): 0%
% Visual Injury Obs ([1]; quinclorac 100 g ai/ha): 0%
Visual Injury Obs ([1]; quinclorac 100 g ai/ha): 0%
% Visual Injury Obs ([1]; quinclorac 200 g ai/ha): 0%
Visual Injury Obs ([1]; quinclorac 200 g ai/ha): 0%
% Visual Injury Obs ([2]; 50 g ai/ha alone, 20-22 d): 0%
% Visual Injury Obs ([2]; 100 g ai/ha alone, 20-22 d): 0%
% Visual Injury Obs ([2]; 200 g ai/ha alone, 20-22 d): 0%
% Visual Injury Obs ([2]; quinclorac 50 g ai/ha): 0%
Visual Injury Obs ([2]; quinclorac 50 g ai/ha): 0%
% Visual Injury Obs ([2]; quinclorac 100 g ai/ha): 0%
Visual Injury Obs ([2]; quinclorac 100 g ai/ha): 0%
% Visual Injury Obs ([2]; quinclorac 200 g ai/ha): 0%
Visual Injury Obs ([2]; quinclorac 200 g ai/ha): 0%
